# Test results: PubChem BioAssay AID493208 (National Center for Advancing Translational Sciences (NCATS), 2011)
# About 340 (0.77%) of roughly 44,000 compounds were called active. About 5% were inconclusive and are not listed. Calls follow the shape of the dose curve; as a rule, active = well fitted inhibition curve with a large enough effect; inconclusive = small, poorly fitted or top-dose-only effect; inactive = flat fitted curve, though single readings scatter. Some of the results follow.
# Test: Acumen qHTS Assay for Inhibitors of the mTORC1 Signaling Pathway in MEF (Tsc2-/-, p53-/-) Cells: Sytravon; also: nearly all actives have a fitted effect of over 50% in size;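 as to activity change, negative = inhibition: plate controls were DMSO for no effect and rapamycin for full effect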
# Conditions: phospho-rpS6 immunofluorescence/PI, 24 h; series mostly up to 38.3 µM; activity change, negative = inhibition: at the top concentration
# How it was run: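 Tsc2-/-, p53-/- mouse embryonic fibroblasts (empty-vector line) exposed to compound 24 hrs at 37 C, fixed, immunostained for phospho-rpS6 and counterstained with propidium iodide. Acumen laser scanning gives % positive cells from Alexa 488/PI ratio, thresholded using 7.5 nM rapamycin; PI count gives viability.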
# Potency is read from the fitted curve at half-maximal effect.
SMILES,"activity change, negative = inhibition",Potency
Cc1c(Cl)cccc1-n1ncc(C(=O)N2CCC(C)CC2)c1C1CCN(C(=O)OC(C)(C)C)CC1,inactive: 3.17%,
Cc1cc(C)nc(NS(=O)(=O)c2ccc(NC(=O)c3nc(SC(C)C)ncc3Cl)cc2)n1,inactive: 3.54%,
COc1ccc(NC(=O)CSc2nc(-c3ccccc3)[nH]c2-c2ccccc2)cc1OC,inactive: 3.24%,
CN(C(=O)C1CCN(c2ncnc3c2nc2n3CCCCC2)CC1)c1ccccc1F,inactive: -0.505%,
CCN(CC)c1ccc(NC(=O)CN2CCN(S(=O)(=O)c3cc(Cl)ccc3OC)CC2)cc1,inactive: -16.4%,
CC(=O)c1ccc(N2CCN(C(=O)c3cc4c(s3)-c3ccccc3OC4)CC2)cc1,inactive: -2.32%,
CC(C)C(NS(=O)(=O)c1ccc2c(c1)oc(=O)n2C)C(=O)NCc1ccccc1 (configuration not stated),inactive: -1.96%,
Cc1oc(-c2ccc(C(=O)NCc3ccccc3F)cc2)nc1COc1ccccc1,inactive: -3.56%,
O=C(Nc1cccc(C(=O)OCc2cc(=O)n3c4c(sc3n2)CCCC4)c1)c1cccc(Cl)c1,inactive: 0.0495%,
COc1cccc(NC(=O)Cn2nnc(C(=O)NCCc3ccccc3)c2N)c1,inactive: 4.26%,
Cn1cnc2c(=O)oc3ccc(S(=O)(=O)N4CCN(c5ccccc5F)CC4)cc3c21,inactive: -9.7%,
Cc1nc(-c2ccc(S(=O)(=O)N(Cc3ccccc3)C(C)C)cc2)co1,inactive: -14.5%,
COc1ccc(CCn2c(=O)c3cccnc3n(CC(=O)Nc3ccc(C)cc3C)c2=O)cc1OC,inactive: -5.13%,
Cn1cc(C(=O)Nc2ccc(C#N)cc2)c2ccccc2c1=O,inactive: 0.764%,
O=C(CSc1nc2c([nH]c3ccccc32)c(=O)n1-c1ccc(F)cc1)NCc1ccc(F)cc1,inactive: -0.618%,
CCOc1ccc(CCNC(=O)c2ccc3c(c2)nc2n3CCOC2)cc1OCC,inactive: 3.56%,
CC(C)OCCCNC(=O)CCCn1c(SCC(N)=O)nc2c(sc3ccccc32)c1=O,inactive: 0.0888%,
Cc1ccc(Cl)cc1NC(=O)C1CCN(C(=O)c2cnn(-c3ccccc3)c2-n2cccc2)CC1,inactive: -5.78%,
Cc1cc(C)c2c(=O)c3c(oc2c1)C(=O)N(Cc1ccco1)C3c1ccc(F)cc1 (configuration not stated),inactive: -2.15%,
CCN(CC)c1cc(C)c2cc(NC(=O)/C=C/c3ccccc3OC(C)C)ccc2n1,inactive: -16.7%,
Cc1ccc(Oc2nc3ccccn3c(=O)c2/C=C(\C#N)c2nc3ccccc3s2)c(C)c1,inactive: 6.47%,
Cc1nn(C)c2c1c(C(F)(F)F)cc(=O)n2CC(=O)N1CCN(c2ccccc2F)CC1,inactive: -13.4%,
CC(=O)N1CCc2c(sc3c2c(=O)n(-c2cccc(Cl)c2)c(=O)n3Cc2ccc(F)cc2Cl)C1,inactive: -1.2%,

SMILES,"activity change, negative = inhibition",Potency
CCOC(=O)c1c(NC(=O)/C=C/c2ccc(OCC)cc2)sc2c1CCCC2,inactive: -0.587%,
O=C(NCc1ccc2c(c1)CCN2C(=O)c1ccc(Cl)cc1)c1ccco1,inactive: -4.31%,
O=C(Cn1c(=O)n(-c2ccccc2)c(=O)c2c3c(sc21)CCCC3)Nc1ccccc1,inactive: -5.74%,
Cc1cc(-c2ccc(C)c(S(=O)(=O)N3c4ccccc4CC3C)c2)on1 (configuration not stated),inactive: 0.826%,
O=C(O)CSc1nnc(-c2ccc(O)cc2)o1,inactive: 0.307%,
CCOC(=O)c1noc2nc(C)n(CC(=O)Nc3ccc(OC)c(Cl)c3)c(=O)c12,inactive: -1.4%,
Cc1cc(N2CCC(C(=O)Nc3ccc(Cl)cc3)CC2)n2nc(C)c(-c3ccc(Cl)cc3)c2n1,inactive: -4.89%,
Cc1ccc(CC(=O)Nc2c(C(=O)N3CCN(c4ccccc4)CC3)oc3ccccc23)cc1,inactive: 0.734%,
CCOC(=O)CSc1nnc2n(-c3ccccc3)c(=O)c3c4c(sc3n12)COC(C(C)C)C4 (configuration not stated),inactive: -15%,
CCCCN(CC)CCNC(=O)C1CCN(c2nnc(C)c3c(C)n(-c4ccc(C)cc4)nc23)CC1,,active: 14.7 µM
CCc1c(C)nc2nncn2c1NCc1ccc(OC)cc1,inactive: -7.21%,
Cc1cc2c(cc3c(=O)n(CC(=O)NCc4ccccc4Br)ncn32)s1,inactive: -3.53%,
Cc1ccc(Cc2c(C)nc3c(-c4ccccc4)c(C)[nH]n3c2=O)cc1,inactive: 1.75%,
Cc1ccc(-n2nc(C)c3c(C(=O)O)cc(C)nc32)cc1,inactive: -7.8%,
Cc1cccc(C)c1OCCn1c(C2CC(=O)N(Cc3ccc(F)cc3)C2)nc2ccccc21 (configuration not stated),inactive: -0.192%,
CC(CNC(=O)c1ccc2c(c1)nc1n2CCOC1)c1ccccc1 (configuration not stated),inactive: 9.37%,
O=C(CCS(=O)(=O)c1cccc2nonc12)Nc1cccc(F)c1,inactive: 3.31%,
CC(C)NC(=O)CSc1nc2ccccc2c(=O)n1Cc1ccc(C(=O)NC(C)C)cc1,inactive: 8.97%,
O=C(CSc1nc(=O)[nH]c2c1CCC2)NCc1ccc(Cl)cc1,inactive: 1.35%,
Cc1cccc(CSc2nc3cccnc3n2Cc2ccc(C(=O)NCc3ccco3)cc2)c1,inactive: 1.94%,
COc1ccc(CN(Cc2ccco2)c2cnc(S(C)(=O)=O)nc2C(=O)Nc2ccc(C)c(C)c2)cc1,inactive: -2.35%,
COC(=O)c1ccc(C(=O)Nc2ccc(-c3nc4cc(NC(=O)c5ccc(C(=O)OC)cc5)ccc4o3)cc2)cc1,inactive: 9.51%,
CCSc1ncc(Cl)c(C(=O)Nc2ccc(S(=O)(=O)Nc3nccc(C)n3)cc2)n1,inactive: 0.0842%,

SMILES,"activity change, negative = inhibition",Potency
O=C(CCC1N=C2c3ccccc3N=C(SCc3ccccc3Cl)N2C1=O)N1CCN(c2ccccc2)CC1 (configuration not stated),inactive: -14.8%,
COC(=O)c1ccc(NC(=O)c2cccc3c2C(=O)N(C2CCCCC2)C3)cc1,inactive: -1.25%,
COC(=O)CC1Oc2ccc(C)cc2-n2cc(-c3ccc(F)cc3)nc21 (configuration not stated),inactive: -3.1%,
COc1ccc(N2CCN(C(=O)c3cc(NS(=O)(=O)c4ccc(F)cc4)ccn3)CC2)cc1,inactive: 0.12%,
CCOc1ccc(CCNC(=O)CCN2N=C(c3ccc(OC)cc3)CCC2=O)cc1OCC,inactive: -8.05%,
CCCSCCCNC(=O)c1cc2n(n1)CCCN(Cc1ccc(C)cc1)C2=O,inactive: 0%,
Cc1ccc(C)c(NC(=O)CSc2ncc3c(n2)-c2cc(Cl)ccc2N(Cc2ccccc2F)S3(=O)=O)c1,inactive: -6.9%,
Cc1ccc(C)c(N2CCN(C(=O)CCn3c(=O)[nH]c4ccccc4c3=O)CC2)c1,inactive: -0.799%,
CC1(C)CC(=O)c2cc(-c3nc(-c4ccc(Cl)cc4)cs3)c(=O)n(-c3ccc(F)cc3)c2C1,inactive: 4.02%,
COc1ccc(Cn2ccc3nc(C)c(C(=O)NCc4ccc(C)cc4)cc3c2=O)cc1,inactive: -8.12%,
Cc1cc(Cl)ccc1NC(=O)CCn1nc(C)c2c(C)n(-c3ccccc3)nc2c1=O,inactive: -0.0615%,
Cc1cccc(OCCSc2nc3ccc(NC(=O)COc4ccccc4F)cc3s2)c1,inactive: -7.15%,
COc1ccc(-c2oc3ncn4nc(-c5ccccc5Cl)nc4c3c2-c2ccc(OC)cc2)cc1,inactive: -1.11%,
Cc1ccc(CNC(=O)CSc2nc3n[nH]c(C)c3c(=N)n2-c2cccc(C)c2)cc1,inactive: 2.5%,
COc1ccc(-c2noc(-c3ccc(N4CCC(C)CC4)c([N+](=O)[O-])c3)n2)cc1OC,inactive: -11.1%,
COc1ccc(N(CC(=O)N2CCN(c3ccc(F)cc3)CC2)S(=O)(=O)c2c(C)n[nH]c2C)cc1,inactive: 0.852%,
CCOc1ccc(NC(=O)Cn2cc(S(=O)(=O)N3CCN(c4ccccc4F)CC3)c3ccccc3c2=O)cc1,inactive: -0.0267%,
O=C(NCCc1csc2nc(-c3cccc(F)c3)nn12)c1ccc(Br)o1,inactive: 2.01%,
CC(C)(C)c1ccc(C(=O)NC(Cc2c[nH]c3ccccc23)C(=O)OCC(=O)c2ccc(Cl)cc2)cc1 (configuration not stated),inactive: 2.08%,
Cc1ccc(CNC(=O)c2cccc(-n3cnc4cccnc43)c2)cc1,inactive: -8.17%,
CCc1ccc(NC(=O)CCNS(=O)(=O)c2ccc3c(c2)CCCC(=O)N3)cc1,inactive: -8.67%,
COc1cccc(C(=O)Nc2c3c(nn2-c2ccc(Cl)cc2)CS(=O)(=O)C3)c1,inactive: 9.96%,
COc1ccc(NC(=O)c2oc3ccc(S(=O)(=O)N(C)C4CCCCC4)cc3c2C)cc1,inactive: 2.01%,

SMILES,"activity change, negative = inhibition",Potency
C=CCC(CC=C)(CNC(=O)C(=O)Nc1ccc(C(=O)OCC)cc1)c1ccccc1,inactive: 2.56%,
COC(=O)c1ccccc1NC(=O)c1cc2c(-c3ccc(OC)c(OC)c3)nn(C)c2s1,inactive: -2.45%,
Cc1ccc(-c2nc3ccccn3c2Nc2ccc3c(c2)OCO3)o1,inactive: -1.26%,
Cc1ccc(NC(=O)C(Cc2ccccc2)n2cccc2)cc1C (configuration not stated),inactive: -0.121%,
CCCN(C(=O)c1cc2c(s1)-c1c(C)cccc1OC2)c1ccc(OCC)cc1,inactive: -0.421%,
CC(C)c1ccc(Nc2nc3c(S(=O)(=O)c4ccc(Br)cc4)nnn3c3ccsc23)cc1,inactive: -0.415%,
COc1ccc(-c2nn(-c3cccc([N+](=O)[O-])c3)c3c2cnc2cc4c(cc23)OCO4)cc1,inactive: 14.3%,
Cc1cc2nc(-c3cccc(NC(=O)CSc4ccc(Cl)cc4)c3)oc2cc1C,inactive: -1.19%,
CCSc1nnnn1-c1cccc(C(=O)O)c1,inactive: -5.56%,
CCOC(=O)c1cc(-c2ccc(C)cc2)n(CC(=O)NC2CCCCCC2)c1C,inactive: 0.621%,
Cc1cccc(-c2c3c(=O)n(C)c(=O)n(C)c3c3cnc4ccccc4n23)c1,inactive: 0.871%,
Cc1c(NC(=O)Nc2ccc(C#N)cc2)c(=O)n(-c2ccccc2)n1C,inactive: 6.15%,
COc1ccc(C2c3[nH]c4ccc(OC)cc4c3CCN2C(=O)Nc2ccccc2)cc1 (configuration not stated),inactive: -12.7%,
CCC(=O)Nc1sc2c(c1C(=O)Nc1cccc(C)c1)CCCC2,inactive: -0.694%,
Cc1cccc(C(=O)Nc2ccc(OCc3cc(=O)n4c5c(sc4n3)CCCC5)cc2)c1,inactive: 2.16%,
Cc1ccc(NC(=O)Cn2cc(S(=O)(=O)c3ccccc3)c(=O)c3cc4c(cc32)OCO4)cc1,inactive: -10.4%,
COC(=O)Cc1c(C)c2cc3c(c(C)c2oc1=O)OCN(CCc1ccc(OC)cc1)C3,inactive: -7.07%,
CCN(CCN(C)C)C(=O)C1CCN(S(=O)(=O)c2c(C)noc2/C=C/c2ccccc2F)CC1,,active: 18.5 µM
Cc1cc(C)c(NC(=O)Cn2nnc(-c3nc(-c4ccccc4)no3)c2N)c(C)c1,inactive: -1.1%,
Cc1cc(C)c2c(n1)SCCN2C(=O)Nc1ccc(C(=O)Nc2ccc(C(C)C)cc2)cc1,inactive: 0.0831%,
CCN(CC)c1ccc2cc(-c3nc(-c4cc(OC)c(OC)c(OC)c4)no3)c(=O)oc2c1,inactive: -7.73%,
Cc1ccc(C)c(NC(=O)C(c2ccccc2)N2Cc3ccccc3C2=O)c1 (configuration not stated),inactive: -0.428%,
COc1ccc(-c2cc(=O)oc3c4c(ccc23)OCN(Cc2cccc(OC)c2)C4)cc1,inactive: -5.09%,
